This is one part of the list. One pool of 16,384 single-stranded DNAs met each Rep nickase domain in vitro (3 µM enzyme, 1 h, 37 °C); shown is the middle of each 90-letter strand. Numbers give uncut DNA relative to the enzyme-free pool, as log2; strong cutting gives strongly negative numbers. There is no active / inactive call. Reads are scaled to the total; uncut strands gain when others are lost, and binding without cutting may add a little.
Tests used:
Assay in all cases: uncleaved DNA left, log2 of reads against the no-enzyme library (log2 ratio); higher = less cleavage (more negative = more Rep cleavage of the k-mer); sequences stand for … in CTCGTCCG…ACCGGAGA
[1] = test system: T1, Rep nickase domain of Muscovy duck circovirus
T1 sequence (Rep 1-111, printed without the tag): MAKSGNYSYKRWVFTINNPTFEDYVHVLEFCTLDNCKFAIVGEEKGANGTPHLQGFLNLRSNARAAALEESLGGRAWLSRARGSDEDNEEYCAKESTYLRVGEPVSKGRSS
Description: (§1)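 A pool of 90-nt single-stranded DNAs with seven random bases just before the constant AC of the nick site (name = the seven bases) was cut by 3 µM recombinant His6-SUMO-tagged Rep nickase domain (300 nM DNA, 50 mM HEPES pH 8.0, 50 mM NaCl, 1 mM MnCl2, 1 h, 37 °C, three replicates). Uncut DNA was amplified and sequenced.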

[2] = test system: T2, Rep nickase domain of banana bunchy top virus
T2 sequence (Rep 1-94, printed without the tag): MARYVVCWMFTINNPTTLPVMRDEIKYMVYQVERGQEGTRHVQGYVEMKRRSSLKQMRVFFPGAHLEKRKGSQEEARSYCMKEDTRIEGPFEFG
Description: as §1

[3] = test system: T3, Rep nickase domain of cabbage leaf curl virus
T3 sequence (Rep 1-116, printed without the tag): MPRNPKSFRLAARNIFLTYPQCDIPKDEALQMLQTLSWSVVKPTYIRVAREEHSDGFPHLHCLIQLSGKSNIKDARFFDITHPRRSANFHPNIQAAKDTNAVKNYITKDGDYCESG
Description: as §1

[4] = test system: T4, Rep nickase domain of chickpea chlorotic dwarf virus
T4 sequence (Rep 1-124, printed without the tag): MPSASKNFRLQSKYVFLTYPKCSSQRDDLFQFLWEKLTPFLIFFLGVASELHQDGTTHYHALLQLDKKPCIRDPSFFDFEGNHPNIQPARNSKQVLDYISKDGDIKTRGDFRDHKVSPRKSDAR
Description: as §1

[5] = test system: T5, Rep nickase domain of faba bean necrotic yellows virus
T5 sequence (Rep 1-98, printed without the tag): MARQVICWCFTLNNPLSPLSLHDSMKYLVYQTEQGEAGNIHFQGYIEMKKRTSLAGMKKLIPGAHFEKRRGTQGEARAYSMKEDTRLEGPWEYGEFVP
Description: as §1

[6] = test system: T6, Rep nickase domain of maize striate mosaic virus
T6 sequence (Rep 1-117, printed without the tag): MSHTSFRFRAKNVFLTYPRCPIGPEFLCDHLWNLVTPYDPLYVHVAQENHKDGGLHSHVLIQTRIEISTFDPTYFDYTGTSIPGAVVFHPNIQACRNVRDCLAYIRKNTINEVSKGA
Description: as §1

[7] = test system: T7, Rep nickase domain of porcine circovirus 2
T7 sequence (Rep 2-116, printed without the tag): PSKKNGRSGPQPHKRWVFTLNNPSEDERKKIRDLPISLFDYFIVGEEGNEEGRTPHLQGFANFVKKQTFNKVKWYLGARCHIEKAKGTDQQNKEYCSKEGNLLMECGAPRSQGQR
Description: as §1

[8] = test system: T8, Rep nickase domain of tomato yellow leaf curl virus
T8 sequence (Rep 1-136, printed without the tag): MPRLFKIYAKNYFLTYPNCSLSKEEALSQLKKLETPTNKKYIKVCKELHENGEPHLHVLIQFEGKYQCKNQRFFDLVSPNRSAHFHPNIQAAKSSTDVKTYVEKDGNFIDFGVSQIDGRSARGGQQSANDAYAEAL
Description: as §1

[9] = test system: T9, Rep nickase domain of wheat dwarf virus
T9 sequence (Rep 1-137, printed without the tag): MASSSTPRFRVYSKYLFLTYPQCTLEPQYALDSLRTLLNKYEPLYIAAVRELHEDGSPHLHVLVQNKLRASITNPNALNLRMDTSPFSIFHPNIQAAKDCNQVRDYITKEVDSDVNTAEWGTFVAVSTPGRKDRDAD
Description: as §1

Row | Sequence | uncleaved DNA left (log2) [1] | uncleaved DNA left (log2) [2] | uncleaved DNA left (log2) [3] | uncleaved DNA left (log2) [4] | uncleaved DNA left (log2) [5] | uncleaved DNA left (log2) [6] | uncleaved DNA left (log2) [7] | uncleaved DNA left (log2) [8] | uncleaved DNA left (log2) [9]
1 | CATTAAA | 0.0089 | -0.176 | -0.0817 | -0.679 | 0.0225 | -0.966 | -0.0867 | -0.037 | 0.0658
2 | ACTCTAA | -0.1 | -0.108 | -0.297 | -0.475 | 0.0253 | -0.897 | -0.146 | -0.176 | -0.114
3 | CCTCCCC | -0.119 | -0.0315 | 0.00539 | -0.317 | -0.031 | -0.247 | -0.576 | -0.141 | -0.213
4 | GCAATAT | 0.038 | 0.0433 | 0.114 | -0.134 | -0.136 | -0.0835 | -0.0318 | 0.0199 | 0.0635
5 | GATTGAC | -0.0318 | -0.0749 | 0.197 | 0.682 | -0.0621 | 0.336 | 0.132 | -0.0402 | 0.0442
6 | GTATGTG | 0.0411 | 0.0339 | -0.572 | -0.48 | 0.00588 | -0.836 | 0.149 | 0.112 | -0.0699
7 | CACGGAG | 0.15 | 0.0382 | -0.557 | -0.398 | 0.124 | -0.721 | 0.0956 | 0.04 | -0.0959
8 | TCTCACA | -0.107 | -0.074 | 0.0585 | -1.44 | 0.00957 | -0.281 | -0.0984 | 0.0759 | -0.121
9 | AGGGTCT | -0.0281 | 0.0195 | 0.18 | 0.703 | -0.112 | 1.27 | -0.0611 | -0.0224 | -0.112
10 | CGACTCC | 0.0878 | 0.0136 | 0.0896 | 0.494 | 0.0214 | 0.792 | -0.0183 | 0.0308 | 0.0693
11 | GACAAGT | 0.0221 | 0.129 | 0.349 | 0.244 | 0.0596 | 0.244 | -0.227 | 0.128 | 0.234
12 | GCCACGG | 0.0315 | 0.00532 | 0.559 | 1.46 | -0.0346 | 1.92 | 0.056 | -0.191 | -0.0394
13 | CTCTATG | 0.0783 | -0.0612 | -0.43 | -0.714 | 0.0194 | -1.02 | 0.0694 | 0.0924 | -0.0214
14 | ACAAACG | -0.104 | 0.0768 | -0.688 | 0.826 | 0.0101 | -0.17 | 0.212 | -0.0256 | -0.023
15 | CAGCCAC | 0.0592 | -0.0244 | -0.0432 | -0.249 | 0.0837 | -0.506 | -0.0123 | 0.0591 | 0.0472
16 | GTATTTC | -0.123 | 0.0176 | 0.28 | 0.849 | -0.0172 | 1.6 | 0.0368 | 0.0921 | 0.0609
17 | TGGAAAA | 0.214 | 0.164 | 0.583 | 1.07 | 0.0416 | 0.964 | 0.227 | 0.0906 | 0.16
18 | CGGCCAG | 0.000284 | -0.0597 | -0.26 | -0.0172 | -0.0711 | -0.383 | 0.14 | -0.0377 | -0.0213
19 | ATGATCA | 0.045 | 0.15 | 0.259 | -0.469 | 0.109 | -0.0868 | 0.0993 | 0.0676 | 0.155

Row | Sequence | uncleaved DNA left (log2) [1] | uncleaved DNA left (log2) [2] | uncleaved DNA left (log2) [3] | uncleaved DNA left (log2) [4] | uncleaved DNA left (log2) [5] | uncleaved DNA left (log2) [6] | uncleaved DNA left (log2) [7] | uncleaved DNA left (log2) [8] | uncleaved DNA left (log2) [9]
20 | ATTCGCA | -0.076 | -0.0711 | -0.671 | -1.24 | -0.0238 | -1.15 | -0.122 | -0.071 | -0.0794
21 | AGCTCTA | -0.0131 | 0.0317 | -0.0148 | -0.17 | -0.0482 | 0.341 | -0.871 | 0.0992 | 0.208
22 | AGAAGAT | 0.0154 | 0.0534 | 0.238 | 1.34 | 0.00159 | 1.63 | 0.216 | -0.109 | -0.0077
23 | GAGAGTC | -0.0188 | 0.0568 | 0.254 | 0.831 | 0.0296 | 0.816 | 0.041 | 0.0529 | 0.0647
24 | CGGGAAC | 0.109 | -0.0257 | 0.683 | 1.74 | -0.0432 | 2.11 | 0.0944 | -0.0776 | 0.122
25 | ACCAGGA | 0.0359 | 0.162 | 0.205 | 0.566 | 0.0673 | -0.451 | 0.179 | 0.0906 | 0.0818
26 | GCATGGT | -0.443 | 0.0959 | 0.109 | -0.163 | 0.121 | -0.248 | -0.538 | 0.0683 | -0.00489
27 | TCAAGCG | 0.0884 | 0.0391 | -0.765 | 0.184 | 0.0783 | -0.914 | 0.216 | 0.0408 | -0.0472
28 | TAGATAA | 0.143 | 0.0503 | -0.0306 | -0.592 | 0.0946 | -0.208 | -0.675 | 0.0259 | 0.136
29 | TGTGCTT | 0.0209 | -0.0409 | 0.0965 | -0.995 | 0.0264 | -0.0766 | -0.0485 | -0.0119 | -0.0867
30 | GCCTAAG | -0.177 | -0.0636 | -0.584 | -0.478 | -0.221 | -1.2 | 0.147 | -0.113 | -0.263
31 | CAGTGAA | -0.0678 | -0.053 | -0.0788 | 0.0627 | 0.0159 | 0.0411 | -2.68 | 0.00201 | -0.0967
32 | AGATAGG | 0.159 | 0.114 | 0.06 | 0.818 | 0.137 | 0.233 | 0.201 | 0.0234 | 0.181
33 | ATGGGTG | 0.0687 | 0.079 | -0.213 | -0.0704 | 0.1 | -0.445 | 0.297 | 0.119 | 0.00167
34 | CTGGAGC | -0.1 | -0.126 | -0.419 | -0.318 | -0.139 | -0.934 | 0.0182 | -0.0755 | -0.174
35 | GCTAGAC | 0.0647 | 0.0603 | 0.312 | 0.802 | 0.0687 | 0.646 | 0.166 | 0.0616 | 0.121
36 | AACACAT | 0.0383 | 0.0716 | 0.00514 | -1.82 | -0.0393 | -0.155 | -0.199 | -0.0249 | 0.145
37 | CGCTTCT | -0.902 | 0.00431 | -0.124 | -1.76 | 0.0607 | -0.589 | -2.39 | 0.0555 | -0.0244
38 | TGTCGCC | 0.0732 | 0.052 | 0.106 | -0.075 | -0.0573 | -0.256 | 0.166 | 0.114 | 0.0131

Row | Sequence | uncleaved DNA left (log2) [1] | uncleaved DNA left (log2) [2] | uncleaved DNA left (log2) [3] | uncleaved DNA left (log2) [4] | uncleaved DNA left (log2) [5] | uncleaved DNA left (log2) [6] | uncleaved DNA left (log2) [7] | uncleaved DNA left (log2) [8] | uncleaved DNA left (log2) [9]
39 | TCGCGCT | -0.07 | -0.171 | -0.474 | -0.918 | -0.0275 | -0.85 | -0.147 | -0.117 | -0.106
40 | AGCACTT | 0.0151 | 0.00147 | 0.202 | 0.629 | -0.0045 | 1.61 | -0.111 | -0.065 | 0.00312
41 | CACGCGG | -0.0141 | 0.00435 | 0.301 | 1.2 | 0.0165 | 1.18 | 0.0377 | -0.0385 | 0.0458
42 | TGAAGCA | 0.0919 | 0.131 | 0.00921 | -0.557 | 0.097 | -0.65 | -0.252 | 0.0557 | 0.0688
43 | GAAGACC | 9.39e-05 | 0.137 | 0.377 | 0.742 | -0.0225 | 0.59 | 0.107 | 0.116 | 0.179
44 | AATTAGA | -0.207 | -0.0907 | -0.277 | -0.61 | 0.0281 | -1.16 | -0.199 | -0.039 | 0.00339
45 | CCGGTAA | 0.0614 | 0.0752 | 0.25 | 0.141 | 0.0412 | 0.525 | 0.141 | 0.0432 | 0.0255
46 | TGGCTAC | -0.0294 | 0.00428 | 0.359 | 0.521 | 0.00212 | 1.4 | 0.0113 | -0.0336 | 0.096
47 | TATAGAG | 0.105 | 0.0061 | -0.463 | -0.561 | 0.192 | -0.941 | 0.12 | 0.0538 | 0.12
48 | GTAAAAC | -0.0102 | 0.0711 | 0.264 | 0.773 | -0.0025 | 1.36 | 0.0655 | 0.164 | 0.0539
49 | GTAGACC | 0.115 | 0.117 | 0.422 | 1.01 | 0.0195 | 1.17 | 0.159 | 0.133 | 0.256
50 | CTGCTCA | 0.0162 | 0.0518 | -0.118 | -0.85 | -0.00609 | -0.788 | -0.2 | 0.0646 | -0.00169
51 | TGATACA | 0.0479 | 0.149 | -1.52 | -2.01 | 0.031 | 0.0458 | -1.29 | 0.131 | -1.18
52 | TTTATAA | -0.000719 | 0.119 | 0.0708 | 0.182 | -0.0615 | 0.33 | -0.0198 | 0.0768 | 0.0629
53 | TTTCCTA | -0.07 | 0.0149 | 0.0534 | -0.571 | -0.00389 | 0.117 | -0.446 | -0.0145 | -0.0254
54 | CTCCTCT | 0.00957 | 0.0907 | -0.105 | -1.96 | -0.0327 | -0.416 | -0.147 | -0.0261 | 0.0736
55 | AGTGTCG | -0.193 | -0.174 | -0.795 | -0.587 | 0.03 | -0.907 | -0.0427 | -0.0812 | -0.14
56 | TCAATCT | 0.0283 | 0.129 | -0.0477 | -0.113 | -0.0202 | 1.28 | -0.000755 | 0.132 | 0.129
